Assay results published in PubChem BioAssay AID1345082 (National Center for Advancing Translational Sciences (NCATS), 2018).
About 4,000 (4.3%) of roughly 94,000 compounds were called active. Inconclusive results, whose numbers are uncertain, are shown with a selection of clear calls. Calls come from the whole dose curve; as a rule, active = well fitted inhibition curve with a large enough effect; inconclusive = small, poorly fitted or top-dose-only effect; inactive = no such curve, though single readings can be large or run the other way. Potencies beside an inconclusive call are fits to weak or partial responses and may not hold up.

Assay: Cytotoxic Profiling in NIH 3T3 Cell Line of Diverse Libraries Using Quantitative High-Throughput Screening; note: nearly all actives have a fitted effect of over 55% in size
Conditions: NIH 3T3 viability, CellTiter-Glo ATP luminescence, 48-72 h; series mostly up to 96.7 µM
Outline: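 NIH 3T3 cells at 400 cells/well received 23 nL of compound by pintool and were incubated 48 or 72 h at 37 °C. Viability was read as ATP-coupled CellTiter-Glo luminescence.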
Potency is the fitted concentration of half-maximal effect; tags give direction and shape of the fitted curve.

SMILES | Potency
N#Cc1ccc(N2C[C@@H]3OCC(=O)N(CC4CCCCC4)[C@@H]3C2)nc1 | inconclusive: 79.4 µM [inhibitor, partial curve]
CC(C)(C)C1CCC2(CC1)NC(=O)N(CC(=O)N1CCN(c3ccc(F)cc3)CC1)C2=O (configuration not stated) | inconclusive: 79.4 µM [inhibitor, single point]
Cc1nc2c(c(-c3ccc(O)cc3)n1)CN(Cc1ccccc1OC(F)(F)F)CC2 | inconclusive: 50.1 µM [inhibitor, partial curve, poor fit]
Cc1ccc(-c2nc(C(=O)N3CCN(c4cc(C)ccc4C)CC3)no2)cc1 | inconclusive: 70.8 µM [inhibitor, single point]
O=C1CCN(S(=O)(=O)c2ccccc2)CCCN(C(=O)Cc2cccc(F)c2)CCN1 | inconclusive: 35.5 µM [inhibitor, partial curve, poor fit]
CC1=C[C@@H](CNC(=O)c2ccccc2)[C@H](C(C)C)C[C@H]1Cc1nnc(-c2cncn2C)o1 | active: 100 µM
O[C@@H]1C[C@@H](c2nc(-c3ccc4c(c3)OCO4)no2)N(Cc2ccncc2)C1 | inconclusive: 56.2 µM [inhibitor, partial curve, poor fit]
CN(C)c1ccc(-c2ccnc(N[C@H]3CO[C@H]4[C@@H]3OC[C@@H]4NC(=O)NCc3ccccc3)n2)cc1 | active: 22.4 µM
O=C(c1ccc(Cl)cc1)N1CCCC(n2cc(-c3nc(-c4ccccc4)no3)nn2)C1 (configuration not stated) | inconclusive: 28.2 µM [inhibitor, partial curve, poor fit]
COc1ccc(C)cc1NC(=O)Cn1c(N(C)Cc2ccccc2)nc(C)cc1=O | inactive
Cn1ncc2c(C(=O)N3CCCCC3)cc(-c3cccc(F)c3)nc21 | inconclusive: 31.6 µM [inhibitor, partial curve, poor fit]
Cc1ccccc1CN1Cc2nc(NCc3ccncc3)ccc2OCC1=O | inconclusive: 89.1 µM [inhibitor, partial curve, poor fit]
O=C(Cc1ccsc1)NC1CCCN(c2cc(-c3ccccc3)[nH]n2)C1 (configuration not stated) | inconclusive: 79.4 µM [inhibitor, partial curve, poor fit]
O=C(Cn1c(=O)c2c(n1Cc1ccccc1)CN(Cc1ccccc1)CC2)Nc1cccc(F)c1 | inconclusive: 56.2 µM [inhibitor, partial curve, poor fit]
COc1ccc2c(c1)O[C@H]1[C@H](CO)CN([S+](=O)([O-])c3cccs3)[C@@H]21 | inconclusive: 50.1 µM [inhibitor, single point]
OCC1(Cc2cccc(Cl)c2)CCCNC1 (configuration not stated) | inactive
CCOC(=O)[C@@H]1CN(C(=O)COc2ccccc2)[C@H]2c3ccc(OC)cc3O[C@@H]12 | inconclusive: 50.1 µM [inhibitor, partial curve, poor fit]
COc1ccc(NC(=O)c2cc3n(n2)CC(c2ccc(Br)cc2)OC3)cc1OC (configuration not stated) | inconclusive: 39.8 µM [inhibitor, partial curve]
Cc1cccc(C)c1-c1nc(C(=O)NCc2ccc3c(c2)OCO3)n2ccccc12 | inconclusive: 44.7 µM [inhibitor, partial curve, poor fit]
COc1ccc(CNC(=O)c2cc3n(n2)CC(c2ccc4c(c2)OCO4)OC3)cc1 (configuration not stated) | inconclusive: 50.1 µM [inhibitor, partial curve, poor fit]
Cc1cc(-c2nccc3c(=O)cc(N(C)C)oc23)ccn1 | inconclusive: 63.1 µM [inhibitor, full curve, poor fit]

SMILES | Potency
Cc1cccc(OCC2CCCN(C(=O)c3ccc4nc(C)cn4c3)C2)c1 (configuration not stated) | inconclusive: 12.6 µM [inhibitor, full curve, poor fit]
Cc1ccc(-c2noc(-c3nc(-c4ccncc4)no3)n2)cc1 | inactive
CCOC(=O)C1CCCN(C(=O)c2nc3sccn3c2-c2ccccc2)C1 (configuration not stated) | inconclusive: 50.1 µM [inhibitor, partial curve, poor fit]
CCN(C(=O)CN1C(=O)NC2(CCOCC2)C1=O)c1ccccc1 | inactive
O=C(C[C@@H]1CCNC[C@@H]1Cc1cc(COc2ccccc2)on1)NC1CCCCC1 | active: 63.1 µM
Cc1nn(-c2ccccc2)c2c1C(C1CC1)N(CC1CN(C(=O)c3ccccc3F)C1)C2=O (configuration not stated) | inconclusive: 50.1 µM [inhibitor, partial curve, poor fit]
Cc1cccc(CN2CCCCCNC(=O)[C@@H]3CCC[C@@H]32)c1 | inconclusive: 50.1 µM [inhibitor, partial curve, poor fit]
CC(C)c1noc(CN2CCCC(c3nccn3Cc3ccccc3)C2)n1 (configuration not stated) | inconclusive: 11.2 µM [inhibitor, full curve, poor fit]
CCCc1cc(CNC(=O)c2ccc(N3CCCN(CCC)CC3)nc2)on1 | inactive
O=C(CC1CC1)N1C[C@H]2OC(=O)N(CCc3cccc(Cl)c3)[C@H]2C1 | inactive
O=C(c1n[nH]c2ccccc12)N1CCC(N2C(=O)C(OCC3CC3)C23CCCCC3)CC1 (configuration not stated) | inconclusive: 44.7 µM [inhibitor, partial curve, poor fit]
CN(Cc1cccc(CCN)c1)Cc1cccc2ncccc12 | inconclusive: 79.4 µM [inhibitor, partial curve]
COc1ccc(-c2cc(N3CCC(NC(=O)c4ccc(F)c(Cl)c4)C3)n[nH]2)cc1 (configuration not stated) | active: 39.8 µM
CC(C)CC(=O)N1[C@@H](c2ccco2)[C@@H](C(=O)O)C[C@]12CCCCNC2=O | inconclusive: 79.4 µM [inhibitor, partial curve, poor fit]
CCNc1cc(N2CCC(CCC(=O)Nc3ccc(C)cc3C)CC2)ncn1 | inactive
O=C(Cc1cccc(F)c1)N1CCC(Cc2nncn2CC2CC2)C1 (configuration not stated) | inconclusive: 70.8 µM [inhibitor, single point]
Cn1cc(CN2CCc3c([nH]n(CCO)c3=O)C2)c(-c2ccccc2)n1 | inactive
COCCS(=O)(=O)c1ncc(CN2CC[C@@H]3CCCC[C@H]3C2)n1Cc1ccccc1 | inconclusive: 56.2 µM [inhibitor, partial curve, poor fit]
COc1ccc2[nH]c3c(c2c1)CCNC31CCN(Cc2ccc(F)cc2F)CC1 | inconclusive: 50.1 µM [inhibitor, partial curve, poor fit]
COc1ccc(CN2C(=O)[C@H](OC)[C@@H]2C2=CCN(C(=O)c3ccnn3C)CC2)cc1 | inactive
O=C(c1ccc(OC(F)(F)F)cc1)N1CCC(n2cc(-c3nc(C4CC4)no3)nn2)C1 (configuration not stated) | inconclusive: 7.08 µM [inhibitor, full curve]

SMILES | Potency
O=C(C1CCCCC1)N1CCCC2(CC(c3cccc(C(F)(F)F)c3)=NO2)C1 (configuration not stated) | inconclusive: 44.7 µM [inhibitor, partial curve, poor fit]
Cc1ccc(NC(=O)Nc2cccn3nc(C)nc23)cc1 | inconclusive: 44.7 µM [inhibitor, partial curve, poor fit]
COc1ccc(CC(=O)NC2CCN(c3ccc4nnc(-c5ccccc5)n4n3)CC2)cc1 | inconclusive: 39.8 µM [inhibitor, partial curve, poor fit]
O=C(Nc1ccc2ncnc(N3CCCCC3)c2c1)C1CCCCC1 | inconclusive: 50.1 µM [inhibitor, partial curve, poor fit]
O=C(c1cc2n(n1)CC(c1ccc(Br)cc1)OC2)N1CCOCC1 (configuration not stated) | active: 39.8 µM
CCOc1ccc(CC(=O)N2CCCN(c3cc(-c4ccc(OC)cc4)[nH]n3)CC2)cc1OCC | inactive
O=C(Nc1cccc(F)c1)C1CCN(c2cc(C(F)(F)F)ncn2)CC1 | inconclusive: 44.7 µM [inhibitor, partial curve, poor fit]
O=C(NCCc1ccc(Cl)cc1)c1nc(-c2cccnc2)c2cnccn12 | inconclusive: 35.5 µM [inhibitor, partial curve, poor fit]
O=C(NCc1cccc(F)c1)C1CCN(c2nccc(Nc3ccccc3Cl)n2)CC1 | inconclusive: 39.8 µM [inhibitor, partial curve, poor fit]
CC(C)(C)c1cccc(CN2CCC3(CCNCC3)C2)c1O | active: 22.4 µM
CC(C)(C)C(=O)N1CCC2(CC1)NCCc1c2[nH]c2ccccc12 | inactive
Cc1cccc(N2CCN(C(=O)C3CCCN(C(=O)c4cccnc4)CCC(=O)NCC3)CC2)c1 (configuration not stated) | inactive
CCc1cccc(NC(=O)Cn2c(-c3ccc(F)cc3)nc(C)c(CCO)c2=O)c1 | inconclusive: 28.2 µM [inhibitor, partial curve]
Clc1ccc(CN2CCC3(CC2)CC(c2cccnc2)=NO3)cc1 | inactive
CC(C)COC(=O)N1C[C@H](C(N)=O)[C@H]2c3ccccc3N(C)C(=O)[C@]21C | inconclusive: 50.1 µM [inhibitor, partial curve, poor fit]
COc1ccc(-c2ccc(Cn3ccnc3)cn2)c2ccc(C)nc12 | inconclusive: 79.4 µM [inhibitor, partial curve, poor fit]
COc1cccc(-c2ccc(C(=O)N3CCC(NC(=O)Nc4ccccc4F)CC3)cc2)c1 | inconclusive: 22.4 µM [inhibitor, full curve]
NCc1ccc(Oc2ccc(F)c(Cl)c2)cc1 | inconclusive: 56.2 µM [inhibitor, partial curve, poor fit]
O=C(C1CCCC1)N1CC2(CCCN2C2COC2)Cc2ccccc21 (configuration not stated) | inactive
COc1cccc(Nc2nc(-c3c(C)noc3C)cc3cc(CN(C)C)oc23)c1 | active: 44.7 µM
